# Reference: PubChem BioAssay AID1346428 (National Center for Advancing Translational Sciences (NCATS), 2018)
# Among all 48,000 compounds or so, about 1,200 (2.5%) were called active. Inconclusive results (about 2%) are left out.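 Rule for the calls: active = activation of at least 60% and not above a set upper limit (about 1 call in 100 departs from these limits); inconclusive = activation of 40% to 60%, or above that upper limit; inactive = activation under 40%.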 This is one part of the list.
# Molecular target: Probable G-protein coupled receptor 32 (Homo sapiens) (UniProt O75388)
# Assay: qHTS for Agonists of Human Resolvin D1 Receptor DRV1; note: 0% is about no effect
# Conditions: CHO-K1 GPR32 beta-arrestin PathHunter luminescence, 90 min; at 76.9 µM; active compounds read high; zero percent set by DMSO-only wells
# Summary of the method: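 Step 1: seed CHO-K1 GPR32 beta-arrestin cells, 2,500/well, overnight at 37 °C. Step 2: add compounds, 90 min at 37 °C. Step 3: detection reagent, 1 h ambient, then luminescence.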
# UniProt O75388, sequence (O75388 whole entry, looked up): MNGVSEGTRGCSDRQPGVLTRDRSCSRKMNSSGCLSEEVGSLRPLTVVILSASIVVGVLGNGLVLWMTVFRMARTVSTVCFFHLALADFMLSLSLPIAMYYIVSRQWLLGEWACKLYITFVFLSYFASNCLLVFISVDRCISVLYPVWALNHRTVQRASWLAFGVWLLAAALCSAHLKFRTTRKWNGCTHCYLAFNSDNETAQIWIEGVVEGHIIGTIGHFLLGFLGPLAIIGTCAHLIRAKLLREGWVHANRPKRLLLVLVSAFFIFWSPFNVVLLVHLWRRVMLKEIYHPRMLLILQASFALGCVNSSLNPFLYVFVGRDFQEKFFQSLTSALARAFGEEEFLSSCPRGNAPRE
row,Structure (SMILES),activation
1,Cc1ccc(-c2nsc(NC(=O)c3oc4cc(C)c(Cl)cc4c3C)n2)cc1,inactive: 3.25%
2,CCn1c(SCC(=O)Nc2cccc(Cl)c2)nnc1-c1nonc1NC(C)=O,inactive: -19.4%
3,COc1ccc(CNC(=O)C(=O)NCC(c2cccs2)S(=O)(=O)c2ccc(C)cc2)cc1 (configuration not stated),inactive: -15.8%
4,O=C(c1ccc(F)cc1)N1c2ncnn2C2(CCCCC2)[C@@H]2CCCC[C@@H]21,inactive: -5.05%
5,COc1cc2[nH]c(=O)n(Cc3ccc(C(=O)N4CCN(c5cccc(C)c5C)CC4)cc3)c(=O)c2cc1OC,inactive: -4.64%
6,CCOC(=O)c1ccc(NC(=O)c2ccc3c(c2)CCN3S(=O)(=O)c2ccc(Cl)cc2)cc1,inactive: -6.93%
7,COc1ccc(CNC(=O)c2cc(Nc3ccc(OC)cc3OC)nc3ccccc23)cc1,inactive: -21.1%
8,Cc1cccc(NS(=O)(=O)c2nnc(NC(=O)C3CCCCC3)s2)c1,inactive: -9.28%
9,CC(CNC(=O)c1ccc(Cn2c(SCc3ccccc3)nc3cccnc32)cc1)c1ccccc1 (configuration not stated),inactive: -4.81%
10,Cc1ccc(-n2nc(CO)c(C(=O)NCCO)n2)cc1,inactive: -0.872%
11,COc1ccc(CCNC(=O)Cn2nnc(-c3cccc(C(F)(F)F)c3)n2)cc1OC,inactive: -8.7%
12,Cc1ccc(C)c(CN2C(=O)c3ccccc3Sc3ccc(C(=O)NCCCOC(C)C)cc32)c1,inactive: -30.5%
13,COc1ccc2oc(=O)cc(CN3CCN(C(=O)c4ccccc4)CC3)c2c1,inactive: -7.88%
14,O=C(Nc1ccc(O)c(-c2nc3ccccc3o2)c1)c1cccs1,inactive: 24.1%
15,CCOc1ccc(NC(=O)c2oc3ccccc3c2NC(=O)Cc2ccc(OC)c(OC)c2)cc1,inactive: -0.472%
16,CC(C)c1nn2c(=O)cc(COC(=O)c3ccc(NC(=O)c4ccccc4Cl)cc3)nc2s1,inactive: -12.5%
17,CCOC(=O)c1ccc(N2C(=O)c3n[nH]c(C)c3C2c2ccc(C(C)C)cc2)cc1 (configuration not stated),inactive: 16.2%
18,O=C(CSc1n[nH]c(-c2ccccc2Cl)n1)N1CCN(c2ccc(F)cc2)CC1,inactive: -9.7%
19,CCOC(=O)c1c(NC(=O)c2ccc(S(=O)(=O)N(C)C)cc2)sc2c1CCN(C)C2,inactive: -34.2%
20,CCCCSCCCNC(=O)c1cc(-c2cccnc2)nc2ccc(S(=O)(=O)N3CCC(C)CC3)cc12,inactive: -3.83%
21,COc1ccc(NC(=O)Cn2c(=O)n(CC3CCCO3)c(=O)c3ccccc32)cc1 (configuration not stated),inactive: -30.6%

row,Structure (SMILES),activation
1,CCCCCCNc1ncnc2c1sc1nc(N3CCOCC3)c3c(c12)CCCC3,inactive: 1.33%
2,CCCN(C(=O)c1nn(-c2ccc(C)cc2)c(=O)c2c1c1ccccc1n2C)c1ccccc1C,inactive: -0.196%
3,Cc1oc2ccc(O)c(CN3CCN(Cc4ccccc4)CC3)c2c1C(=O)Nc1cccc(Cl)c1C,inactive: -16.4%
4,c1ccc2c(c1)CC(N1CCN(c3cccc4c3OCCO4)CC1)C2,inactive: 9.71%
5,O=C(Nc1cccc(C(=O)N2CCN(c3ccc(F)cc3)CC2)c1)c1nsc2ccccc12,inactive: -17.2%
6,C[C@](Cc1ccc(O)c(O)c1)(NN)C(=O)O,inactive: 0.83%
7,O=C(Nc1ccc(Oc2ccccc2)cc1)C1CCN(S(=O)(=O)c2ccccc2)CC1,inactive: 32.3%
8,CCOc1ccc(NC(=O)c2cnn3c(C(F)F)cc(-c4ccc(C)cc4)nc23)cc1,inactive: -4.06%
9,COc1ccccc1/C=C/c1nc(C#N)c(NC(C)c2ccccc2)o1 (configuration not stated),inactive: -21.8%
10,Cc1c(Cl)cccc1NC(=O)CN1C(=O)CSc2ccc(S(=O)(=O)N3CCCC3)cc21,inactive: -24.8%
11,CC(=O)c1cc(-c2ccc(F)cc2)n(CCC(=O)NCc2ccc(C)cc2)c1C,inactive: -21.5%
12,Cc1ccccc1CCNCc1c(C(=O)O)c(C)n(Cc2c(F)cccc2Cl)c1C,inactive: 9.3%
13,Cc1ccc(NC(=O)CN2CCN(C3CCCCC3)C(=O)C2=O)cc1,inactive: -17.9%
14,CC(C)(C)C(=O)OCOC(=O)C1N2C(=O)CC2S(=O)(=O)C1(C)C (configuration not stated),inactive: 15.9%
15,CCc1ccc(Sc2cc(C(=O)NCCCN3CCCC(C)C3)c3ccccc3n2)cc1 (configuration not stated),active: 88%
16,Cc1ccc(-n2ncc(C(=O)N3CCN(C4CCCCC4)CC3)c2C2CCN(C(=O)OC(C)(C)C)CC2)cc1,inactive: -6.97%
17,O=c1cc(COc2cccc(C(F)(F)F)c2)nc2sc3c(n12)CCCC3,inactive: -0.163%
18,O=C(c1cccc(Cl)c1)n1nc(-c2cccnc2)nc1NCc1ccccc1,inactive: 4.85%
19,CCOC(=O)c1c(C)oc2nc(C)nc(NCc3cccc(Cl)c3)c12,inactive: 4.24%
20,CCCCOc1cccc(NC(=O)c2cccc(C(=O)Nc3cccc(OCCCC)c3)c2)c1,inactive: -3.83%
21,CCc1ccccc1NC(=O)c1ccc(=O)n(Cc2ccc(F)cc2)c1,inactive: 49.4%

row,Structure (SMILES),activation
1,CCc1ccc(-n2c(=O)c3cccnc3n2CC(=O)Nc2cc(OC)ccc2OC)cc1,inactive: -3.15%
2,CSCCC(NS(=O)(=O)c1ccc2c(c1)oc(=O)n2C)C(=O)N1CCN(c2ccc(C(C)=O)cc2)CC1 (configuration not stated),inactive: -17.4%
3,COc1cccc(C(=O)NCC(=O)OCc2cc(=O)n3ccsc3n2)c1,inactive: 13.5%
4,Cc1ccc(C(=O)Nc2nc(-c3nnn(-c4cccc(C(F)(F)F)c4)c3C)ns2)cc1,inactive: -3.58%
5,COc1cc(OC)cc(C(=O)Nc2nnc3n2CCS3)c1,inactive: -78.9%
6,CC(C)CC(=O)Nc1nnc(SCc2cc(=O)n3ccccc3n2)s1,inactive: 0.992%
7,Cc1ccc(CCNC(=O)c2cn(C)c3ccc(S(=O)(=O)N4CCC(C)CC4)cc3c2=O)cc1,inactive: -6.13%
8,Cc1cc(C)c(NC(=O)CCCn2c(C)c3cnn(-c4ccccc4)c(=O)c3c2C)c(C)c1,inactive: -9.26%
9,COc1ccccc1NC(=O)CN1C(=O)CSc2ccc(S(=O)(=O)N3CCCC3)cc21,inactive: -18.1%
10,CCN(CC)S(=O)(=O)c1ccc2[nH]cc(C(=O)NCCc3ccccc3)c(=O)c2c1,inactive: 32.4%
11,O=c1c(S(=O)(=O)c2cccc(Cl)c2)cn(Cc2ccccc2)c2cc(N3CCCCC3)c(F)cc12,inactive: -7.11%
12,CCOC(=O)c1c(S(=O)(=O)NCC(=O)Nc2ccc(F)cc2C)c(C)n(C)c1C,inactive: -11.7%
13,COc1cc(OC)cc(-c2nc3nc(C)c(CCC(=O)NCCC(C)C)c(C)n3n2)c1,inactive: -7.55%
14,COc1cc(OC)c(NC(=O)c2c(C)oc3nc(C)nc(N4CCOCC4)c23)cc1Cl,inactive: -10.2%
15,CC(=O)C1=C(c2ccc(Br)cc2)N(C(C)=O)n2c(nnc2C2CCCCC2)S1,inactive: -28%
16,CCn1ccc2cc(S(=O)(=O)N3CCC(C(=O)NCCc4ccccc4)CC3)ccc21,inactive: -11.8%
17,O=C(NCc1ccccc1Cl)c1ccc(Cn2c(=O)c3cccn3c3cccnc32)cc1,inactive: -3.02%
18,Cc1cccc(CNC(=O)c2ccc(C)c(-n3c(C)nc4cccnc43)c2)c1,inactive: -5.4%
19,CCOc1ccc(-n2c(=O)c3c(C)c(C)sc3n(CC(=O)N3CCC(C)CC3)c2=O)cc1,inactive: -11.6%
20,COc1cccc(-n2cc(C(=O)OCc3ccc(Cl)cc3)c3ccccc3c2=O)c1,inactive: -19.5%
21,O=C(CSc1nnc(-c2ccccc2F)o1)Nc1ccccc1Cl,inactive: -9.86%

row,Structure (SMILES),activation
1,CCSc1nnc2c(n1)OC(c1ccc(C)s1)Nc1ccccc1-2 (configuration not stated),inactive: -18.7%
2,COc1ccc(CCNC(=O)Cn2cc(S(=O)(=O)Cc3ccccc3Cl)c3ccccc32)cc1OC,inactive: -6.25%
3,CCOc1ccccc1NC(=O)CSc1ncc(S(=O)(=O)c2ccc(C)c(C)c2)c(N)n1,inactive: -7.85%
4,O=C(CSc1nc2c([nH]c3ccccc32)c(=O)n1-c1ccccc1)Nc1ccc(Cl)c(Cl)c1,inactive: -24.2%
5,CCc1nn(CC(=O)Nc2c(C)cccc2C)c(=O)c2cc3sccc3n12,inactive: -6.9%
6,CNC(=O)c1c(NC(=O)Cc2coc3ccc(C)cc23)sc2c1CCCC2,inactive: -11.7%
7,COc1ccc(-c2noc(-c3ccc(NCC4CCCO4)c([N+](=O)[O-])c3)n2)cc1 (configuration not stated),inactive: -13.5%
8,COc1cc(NC(=O)N2CCC3(CC2)Nc2ccccc2-n2cccc23)cc(OC)c1OC,inactive: -11.5%
9,COc1ccc(-c2cc(OC(=O)c3cccc(Cl)c3)c3c(C)oc(C)c3c(=O)c2)cc1,inactive: -6.72%
10,O=C(COc1ccc2ccccc2c1)NC1CC(=O)N(c2ccccc2)C1 (configuration not stated),inactive: -3.81%
11,Cc1ccc2nc(-c3cccnc3)c(Nc3ccc(C(C)C)cc3)n2c1,inactive: -21.9%
12,COc1ccccc1NC(=O)CSc1oc(-c2ccccc2)nc1S(=O)(=O)c1ccc(C)cc1,inactive: -10.2%
13,O=C(CSc1c2c(nc3cc(Cl)ccc13)CCCC2)N1CCN(c2ccccc2F)CC1,inactive: -22.4%
14,CCOC(=O)c1noc2ncn(CC(=O)Nc3cccc(Cl)c3)c(=O)c12,inactive: 14.1%
15,Cc1cn2c(=O)c(S(=O)(=O)N3CCN(c4cc(Cl)ccc4C)CC3)c(C)nc2s1,inactive: -2.46%
16,O=C(c1ccc(F)cc1)n1nc(-c2cccnc2)nc1NCc1ccc(F)cc1,inactive: -16.7%
17,Cc1nc(-c2ccc(S(=O)(=O)N3CCN(c4cc(Cl)ccc4C)CC3)cc2)co1,inactive: -14.7%
18,O=C(NCCc1ccc(Cl)cc1)C1COc2ccccc2C1 (configuration not stated),inactive: -30%
19,CCOC(=O)c1ccc(NC(=O)c2cn(-c3ccccc3)nc2-c2ccc(OC)c(OC)c2)cc1,inactive: -1.26%
